# In all, about 33,000 sequences were measured (“E-score (-0.5 to 0.5)”: median about -0.016, highest 2% from about 0.32 on). The list shows a part of the results.
# Target: T1, Stp1 (UniProt B3LFK1)
# T1 sequence: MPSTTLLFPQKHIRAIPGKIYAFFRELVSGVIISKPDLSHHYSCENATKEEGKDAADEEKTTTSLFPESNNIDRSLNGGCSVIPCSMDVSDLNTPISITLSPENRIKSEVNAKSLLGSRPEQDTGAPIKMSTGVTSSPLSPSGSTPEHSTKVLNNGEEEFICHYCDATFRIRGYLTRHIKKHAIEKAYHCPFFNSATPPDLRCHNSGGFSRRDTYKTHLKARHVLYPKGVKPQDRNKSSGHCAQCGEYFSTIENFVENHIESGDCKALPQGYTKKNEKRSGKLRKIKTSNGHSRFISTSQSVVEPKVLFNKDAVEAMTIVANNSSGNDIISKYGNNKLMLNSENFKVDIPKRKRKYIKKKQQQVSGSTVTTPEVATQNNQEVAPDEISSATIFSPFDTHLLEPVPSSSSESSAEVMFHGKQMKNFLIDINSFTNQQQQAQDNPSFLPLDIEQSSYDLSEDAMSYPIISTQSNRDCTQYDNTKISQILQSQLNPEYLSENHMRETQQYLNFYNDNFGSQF
# Assay: PBM E-score (8-mer binding enrichment) (E-score (-0.5 to 0.5)); higher = stronger / more preferred TF binding; most listed sequences are background and not binding sites
# Details: protein concentration: 200 nM; construct: GST-full length
# Experimental: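 Universal 'all 10-mer' protein binding microarrays (Agilent AMADID 015681) probed with GST-tagged S. cerevisiae TFs (full-length or DBD) made by in vitro transcription/translation (PURExpress), about 100-200 nM. Bound TF was detected with fluorescent anti-GST. Each ungapped 8-mer (which stands for itself and its reverse complement) is scored by the PBM enrichment score (E-score), a modified Wilcoxon-Mann-Whitney statistic from -0.5 to +0.5, computed with the Universal PBM Analysis Suite. Scale: above 0.35 generally sequence-specific binding.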
row,Sequence,PBM E-score
1,ACCAAGGC,0.0919
2,CGCAAACG,0.202
3,CAAACCGG,-0.213
4,AGCAGGTA,-0.239
5,GTATAGAC,-0.0238
6,CCTATGTA,-0.117
7,CGATTCAA,0.0102
8,GCCACAAA,0.138
9,ACGAATCT,-0.0452
10,CAGACCGA,-0.0215
11,CTTGATCA,-0.00807
12,AAGGTCCC,-0.32
13,ACGGTAAC,0.0643
14,GCTCTGAA,0.0165
15,ATCCGGGA,-0.147
16,AGTGTCCG,0.0985
17,ATAGTCAC,0.0242
18,AGGATATC,0.084
19,CTCTACAC,-0.0754
20,ACCAGGTC,-0.234
21,AGACGAAC,0.00641
22,GGGCTCAC,-0.333
23,CATGTGGA,0.0109
24,ATCACACC,-0.146
25,AGCCTGAG,-0.156

row,Sequence,PBM E-score
1,CAGTTTTC,0.118
2,AGACAACC,0.0513
3,AATGTCAA,-0.0648
4,ATGCACAG,-0.118
5,CAGTCAAC,-0.139
6,AAAACAGG,-0.122
7,GGTCGGAA,-0.232
8,AGGACGTA,-0.245
9,CGATATGA,0.0106
10,GTAAGTGA,0.00308
11,ACTTGCTA,-0.131
12,ACAGGTTC,-0.138
13,CGATACCG,-0.087
14,AAGTAGGA,0.0589
15,CCCATCGA,-0.142
16,AGCAGCCC,-0.114
17,ACATAAAG,0.0197
18,GGGCTCTA,-0.0132
19,TATGCAGA,-0.0394
20,CATTAAGA,-0.0282
21,CATATTAC,0.0683
22,AATTACTA,0.0643
23,CCTTACGC,0.215
24,ACCCCCGT,-0.247
25,AATTGCTA,-0.00568

row,Sequence,PBM E-score
1,CTCCTCCC,-0.294
2,ATGAGTCG,-0.114
3,GACAGCTA,-0.157
4,AAACCAAG,0.24
5,ATTCTGGG,-0.201
6,CCCGCGGA,0.0756
7,AGACTCGC,-0.0934
8,ACGGGGCA,0.232
9,AATGCTGG,-0.115
10,AAGATACG,0.132
11,CGCATAAG,0.146
12,CATACTCC,-0.134
13,AGTTGCTG,0.0498
14,GCTGAAAC,0.0696
15,ATGCGGCC,0.331
16,GTCAGACA,-0.0208
17,GGAGACGA,0.072
18,CCCTTGCA,-0.163
19,GCCATGAA,0.0613
20,CATACGCG,0.133
21,ATACCAAC,0.0864
22,AATTGCTG,0.223
23,ACACGGCT,0.458
24,CTTCCGAA,0.0442
25,AGGACACA,0.194

row,Sequence,PBM E-score
1,GATGACGA,0.0124
2,TCCTAAAA,0.108
3,CACCAGAA,-0.101
4,GATCGTTA,-0.235
5,CCAGGCGA,-0.333
6,ATCAGCTG,0.16
7,CCAATGAC,-0.0281
8,TAACCCCA,-0.336
9,GCATCGAC,0.0997
10,CGGCCACC,0.0334
11,ATACACAG,-0.0396
12,GGGTTATA,-0.274
13,CATAAAGC,-0.0593
14,AGGAATAC,-0.126
15,TGGGGCAA,-0.00868
16,GCGGTCGA,-0.00151
17,CGGGTATC,-0.0414
18,TTAGGAAA,0.0994
19,AAGCTCCA,-0.181
20,ACCGGCCC,-0.239
21,CTAGAAGA,-0.0697
22,CGCCAGAA,0.0143
23,CATTCCAA,0.00793
24,ATAGCATC,-0.246
25,AATTTCGC,0.182

row,Sequence,PBM E-score
1,GATCCGGA,-0.028
2,ATATTTAG,0.285
3,CCCACGTA,-0.182
4,AGTCATGC,-0.0428
5,CCGTACGA,0.298
6,CCGGCCGC,-0.018
7,CAGGACAA,0.0438
8,GAAAATCA,0.0528
9,AAAAAAGG,-0.0327
10,CTGAAATC,-0.0485
11,CTCTAGGA,-0.188
12,ACAGTGTC,-0.0275
13,TGTCAAAA,0.132
14,ATTTTGGA,0.14
15,CACTTCCC,-0.00571
16,AATTGTAT,-0.0583
17,ACACTCAG,-0.0774
18,AGGAAATA,0.163
19,CTTCACCA,-0.129
20,GTTGTGTA,0.0351
21,CCTTTGCG,0.0542
22,AATTCTAT,0.00783
23,GGCCCGTA,-0.0728
24,ACTGAATC,-0.0944
25,GAGTCGTA,-0.114

row,Sequence,PBM E-score
1,AGCCCTGA,-0.242
2,AGGAATCA,0.0117
3,GTCTGTGA,-0.0363
4,AGTACTGC,-0.127
5,ATGTGCTG,0.0902
6,AGGAACCA,-0.0186
7,TCTAACAA,-0.0699
8,TCCCGGCA,-0.223
9,CCAATCAC,-0.036
10,CAAGAAAG,0.139
11,CCACCCCC,-0.417
12,CTTGTATA,0.131
13,CTCAATTA,0.0547
14,CGACACGA,0.119
15,AACGAAGC,-0.0297
16,CCAACGTC,-0.176
17,CCTTCTCC,-0.221
18,AGGCAGTC,-0.00564
19,GGTCCGCA,0.0875
20,ATCCTCAT,-0.126
21,ACCTGCAT,0.0821
22,CTAATAAG,0.0778
23,CGCATACC,0.173
24,AGGCGTAA,0.151
25,AAGGCATG,0.158

row,Sequence,PBM E-score
1,AAACCTGT,-0.155
2,ACATATTC,0.131
3,CAGACGGA,0.0941
4,ACTAGCAT,-0.069
5,ACCCTCCA,-0.199
6,AACGGGCT,-0.293
7,GGTGATTA,0.0978
8,AATCGGCC,-0.0295
9,CCGATCCA,-0.0288
10,AGCAACCG,-0.174
11,CATCAGGG,-0.169
12,CAAGTACA,-0.0267
13,CACGCTGG,-0.0359
14,CTGACTTC,-0.147
15,GGCCCCAC,-0.248
16,GAGTCGCA,-0.232
17,CAGGTGAG,-0.358
18,GGCAATGA,0.115
19,AAAGTTTC,0.0638
20,AGGTTGAC,-0.223
21,AAGGATTA,-0.103
22,GTACATTA,0.127
23,CTAGTTAC,-0.035
24,ATCAGACA,-0.029
25,AACTTGCG,0.106

row,Sequence,PBM E-score
1,AATTTGCA,-0.0371
2,GCGTAACA,0.0464
3,CCCATGGC,-0.0564
4,GTCAAACA,-0.0809
5,AGGGATAT,-0.19
6,CAGGGGCA,-0.0911
7,CTCCTTCA,-0.288
8,AGTTTGTG,0.0255
9,CTCATGAA,0.192
10,ATAAACAA,0.199
11,AATTTAAC,0.185
12,CACACTAC,-0.0876
13,ATCCACGG,0.222
14,GTCCCGTA,0.0409
15,CATGTGCC,0.222
16,CCGTATCC,0.316
17,TTAAAAAA,0.248
18,GTAGCATA,0.0457
19,ATTATTCG,0.202
20,ACCCCGTG,0.236
21,CCGCTGGA,0.0272
22,CGTAATAC,0.186
23,CGAGCGAG,0.107
24,GTAAGGAA,0.0126
25,GGCCGGCC,-0.111

row,Sequence,PBM E-score
1,ACACCCTC,-0.347
2,ATGCGACA,0.149
3,GCGAACGA,0.0326
4,CTTCTGCA,0.0733
5,GGCAGCAA,0.179
6,AATCCCGG,-0.203
7,CTTGCGGC,0.272
8,CTCCAGGC,-0.162
9,GAATCTGA,-0.0474
10,TCACACAA,-0.0391
11,AACGCACG,0.36
12,ACAATTTA,0.121
13,AGACGTCA,-0.158
14,AACTCGGA,-0.0249
15,CTTTCCAA,0.181
16,AAGCACAT,0.0405
17,AAGATGTC,-0.112
18,AATCGTGT,0.0905
19,CACGAGCC,-0.0433

# Reference: the supplement of paper PMC3334620
